In the supplement of paper PMC6531468:
Some of the results follow. These are enrichments in a pooled selection; single values are uncertain. Each score is taken over the longer molecules that contain the sequence shown.

Experiments:
Assay in all cases: 6-mer SELEX enrichment z-score vs GST control; IMP3 is the RNA-binding protein IGF2BP3; higher = more enriched by binding
IMP3 KH1-4 = conditions: construct: KH1-4 (164-579); SELEX round: R4
Procedure: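 SELEX-seq with GST-tagged IMP3 KH1-4 (Pro164-Lys579) and an N40 RNA pool, round 4. 6-mer z-score of sequence-tag enrichment normalised to the corresponding GST SELEX round; RNA k-mers written as DNA (T for U).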

IMP3 RRM1-2 = conditions: construct: RRM1-2 (1-163); SELEX round: R2
Procedure: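 SELEX-seq with GST-tagged IMP3 RRM1-2 (Met1-Asn163) and an N40 RNA pool, round 2. 6-mer enrichment z-score normalised to GST SELEX. RNA written as DNA (T = U).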

IMP3 full-length = IMP3 full-length (UniProt O00425); conditions: construct: FL IMP3 (1-579); SELEX round: R4
Procedure: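 SELEX-seq with GST-tagged full-length IMP3 and an N40 RNA pool, round 4. Each 6-mer is scored as an enrichment z-score of sequence tags containing it, normalised to the matching GST SELEX round. RNA written as DNA (T = U).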

IMP3 KH1-2 = conditions: construct: KH1-2 (164-376); SELEX round: R4
Procedure: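 SELEX-seq with GST-tagged IMP3 KH1-2 (Pro164-Phe376) and an N40 RNA pool, round 4 (stringent 300/600 mM KCl washes). 6-mer z-score of sequence-tag enrichment normalised to the corresponding GST SELEX round; RNA k-mers written as DNA (T for U).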

IMP3 KH3-4 = conditions: construct: KH3-4 (377-579); SELEX round: R4
Procedure: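 SELEX-seq with GST-tagged IMP3 KH3-4 (Pro377-Lys579) and an N40 RNA pool, round 4. 6-mer z-score of sequence-tag enrichment normalised to the corresponding GST SELEX round; RNA k-mers written as DNA (T for U).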

Chain of UniProt O00425 (O00425 whole entry): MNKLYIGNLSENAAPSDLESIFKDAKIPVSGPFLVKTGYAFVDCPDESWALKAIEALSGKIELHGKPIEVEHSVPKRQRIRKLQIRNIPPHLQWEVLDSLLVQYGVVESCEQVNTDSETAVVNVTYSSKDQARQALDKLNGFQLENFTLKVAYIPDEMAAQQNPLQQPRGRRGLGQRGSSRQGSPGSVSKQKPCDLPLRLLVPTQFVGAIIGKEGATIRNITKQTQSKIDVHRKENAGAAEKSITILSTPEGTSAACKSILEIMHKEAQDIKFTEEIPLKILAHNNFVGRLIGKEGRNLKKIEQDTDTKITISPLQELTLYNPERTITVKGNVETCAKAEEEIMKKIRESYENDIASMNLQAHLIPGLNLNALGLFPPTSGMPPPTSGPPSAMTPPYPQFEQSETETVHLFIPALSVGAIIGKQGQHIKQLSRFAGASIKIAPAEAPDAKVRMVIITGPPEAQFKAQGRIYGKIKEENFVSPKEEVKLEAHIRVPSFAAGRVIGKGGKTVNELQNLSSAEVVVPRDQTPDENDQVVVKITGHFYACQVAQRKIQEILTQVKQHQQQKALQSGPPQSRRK
Chain of IMP3 RRM1-2 (chain, as listed by the source): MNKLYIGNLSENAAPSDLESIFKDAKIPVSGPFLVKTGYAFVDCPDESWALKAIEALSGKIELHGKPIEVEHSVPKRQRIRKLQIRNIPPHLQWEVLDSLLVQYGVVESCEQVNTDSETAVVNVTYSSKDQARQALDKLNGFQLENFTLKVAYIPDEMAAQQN
Chain of IMP3 KH1-4 (chain, as listed by the source): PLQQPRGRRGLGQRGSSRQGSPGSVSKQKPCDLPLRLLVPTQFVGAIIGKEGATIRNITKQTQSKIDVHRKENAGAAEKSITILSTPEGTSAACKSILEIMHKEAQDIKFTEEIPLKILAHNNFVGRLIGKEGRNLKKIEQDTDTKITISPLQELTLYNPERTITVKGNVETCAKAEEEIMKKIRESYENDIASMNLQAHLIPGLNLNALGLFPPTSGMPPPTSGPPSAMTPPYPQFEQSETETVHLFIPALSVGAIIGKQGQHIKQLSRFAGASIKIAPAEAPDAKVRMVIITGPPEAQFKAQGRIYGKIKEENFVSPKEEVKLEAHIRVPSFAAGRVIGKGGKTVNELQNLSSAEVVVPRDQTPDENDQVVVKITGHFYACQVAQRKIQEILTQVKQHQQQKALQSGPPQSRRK
Chain of IMP3 KH1-2 (chain, as listed by the source): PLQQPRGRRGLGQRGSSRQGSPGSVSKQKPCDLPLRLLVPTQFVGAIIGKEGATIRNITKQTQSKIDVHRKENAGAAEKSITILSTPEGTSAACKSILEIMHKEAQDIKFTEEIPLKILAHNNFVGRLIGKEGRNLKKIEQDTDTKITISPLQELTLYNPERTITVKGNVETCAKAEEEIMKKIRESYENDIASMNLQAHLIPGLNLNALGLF
Chain of IMP3 KH3-4 (chain, as listed by the source): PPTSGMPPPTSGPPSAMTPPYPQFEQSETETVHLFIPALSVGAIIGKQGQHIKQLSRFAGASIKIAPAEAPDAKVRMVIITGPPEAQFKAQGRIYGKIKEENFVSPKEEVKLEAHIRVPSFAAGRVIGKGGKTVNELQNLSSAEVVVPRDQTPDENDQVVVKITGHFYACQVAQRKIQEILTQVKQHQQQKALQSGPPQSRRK

Sequence	6-mer SELEX enrichment z-score (IMP3 KH1-4)	6-mer SELEX enrichment z-score (IMP3 RRM1-2)	6-mer SELEX enrichment z-score (IMP3 full-length)	6-mer SELEX enrichment z-score (IMP3 KH1-2)	6-mer SELEX enrichment z-score (IMP3 KH3-4)
GGATAA	0.624	-0.752	-0.315	0.394	0.995
TGCACG	0.954	-0.038	0.702	0.653	0.442
CTTCCC	-0.276	-0.246	-0.822	-0.345	-0.946
GTAACC	-1.3	-0.651	-1.09	-1.26	-1.46
AAAGTG	-0.385	-1.14	-1.03	-0.636	-0.08
CAAATT	0.506	-0.235	-0.13	0.629	0.794
CTAGGT	-0.107	0.275	0.071	-0.072	0.04
GCTTGG	-0.332	0.366	0.092	-0.205	-0.159
CACGGC	1.74	1.16	3.16	1.06	0.855
ACATTC	1.75	2.18	2.22	1.85	1.08
CGTATC	-0.972	0.142	-0.376	-0.852	-0.855
GGTCAT	0.44	0.467	0.618	0.325	0.481
CAGGTC	0.327	0.516	0.94	0.147	0.076
TAGTCC	-0.042	0.028	-0.194	-0.167	-0.307
CATTTA	1.46	0.919	0.969	1.44	1.62
TCGCTG	-0.05	0.14	0.034	0.019	-0.106
TTACCT	-0.727	-0.142	-0.736	-0.618	-0.708
CCAGCA	-0.079	0.857	0.793	-0.137	-0.71
ATCTCG	-0.855	0.375	-0.013	-0.712	-0.67
CTCAGG	-0.414	0.455	0.379	-0.259	-0.359
